We go through 90 compounds from paper PMC4336329 (PLoS ONE, 2015).

Structures are written as SMILES. About 2,200 (0.71%) of roughly 310,000 compounds showed an effect of 50% or more. Effects have a minus sign here. This is one part of the list.

In the assay the target is human ether-à-go-go-related gene (hERG) potassium channel (human, UniProt Q12809). Put plainly: primary screen, population patch clamp on CHO cells stably expressing hERG.
human ether-à-go-go-related gene (hERG) potassium channel, sequence (Q12809 whole entry, looked up): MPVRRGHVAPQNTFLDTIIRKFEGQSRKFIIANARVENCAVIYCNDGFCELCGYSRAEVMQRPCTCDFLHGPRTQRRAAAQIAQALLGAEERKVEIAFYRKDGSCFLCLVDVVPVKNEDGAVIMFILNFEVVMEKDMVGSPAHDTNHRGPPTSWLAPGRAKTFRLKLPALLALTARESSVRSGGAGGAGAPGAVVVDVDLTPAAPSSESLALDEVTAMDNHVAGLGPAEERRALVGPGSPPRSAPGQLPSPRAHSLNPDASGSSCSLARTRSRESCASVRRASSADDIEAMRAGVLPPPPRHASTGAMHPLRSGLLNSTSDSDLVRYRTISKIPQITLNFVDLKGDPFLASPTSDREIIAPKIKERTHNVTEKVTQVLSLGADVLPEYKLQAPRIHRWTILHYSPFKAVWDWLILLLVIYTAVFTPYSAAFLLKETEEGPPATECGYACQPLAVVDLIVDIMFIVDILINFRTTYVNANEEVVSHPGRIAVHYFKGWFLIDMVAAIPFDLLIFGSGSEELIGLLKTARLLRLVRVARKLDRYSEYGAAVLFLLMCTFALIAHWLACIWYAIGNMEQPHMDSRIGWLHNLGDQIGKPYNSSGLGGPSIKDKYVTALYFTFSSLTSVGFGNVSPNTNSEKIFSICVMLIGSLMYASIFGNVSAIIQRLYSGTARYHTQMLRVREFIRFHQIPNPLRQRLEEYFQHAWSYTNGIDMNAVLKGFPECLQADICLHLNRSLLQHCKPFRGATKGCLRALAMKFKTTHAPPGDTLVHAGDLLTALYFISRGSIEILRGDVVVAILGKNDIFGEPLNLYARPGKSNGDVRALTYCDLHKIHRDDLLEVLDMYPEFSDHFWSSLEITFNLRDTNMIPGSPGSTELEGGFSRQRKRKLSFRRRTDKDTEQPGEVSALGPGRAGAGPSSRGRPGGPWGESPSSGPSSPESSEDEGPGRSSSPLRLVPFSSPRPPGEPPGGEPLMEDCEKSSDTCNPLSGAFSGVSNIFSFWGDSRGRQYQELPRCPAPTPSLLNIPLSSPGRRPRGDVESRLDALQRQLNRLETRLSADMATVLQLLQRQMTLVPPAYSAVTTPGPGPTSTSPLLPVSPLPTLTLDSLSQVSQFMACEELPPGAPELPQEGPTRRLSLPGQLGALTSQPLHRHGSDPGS
In the case of `CN(CC(=O)Nc1ccc(N2CCOCC2)cc1)C(=O)C12CC3CC(CC(C3)C1)C2`, the “hERG current change (%, negative = inhibition) at 1uM” value is reported as -0.85%.
The result for `COC(=O)c1ccc(N2C(=O)CC(N3CCOCC3)C2=O)cc1` (stereo not drawn) reads 7.77%; that for `CN(Cc1ccc(Cl)cc1)C(=O)CNC(=O)C12CC3CC(CC(C3)C1)C2`, -2.83%.
With `Cc1ccc(CNS(=O)(=O)c2ccc(Br)s2)cc1` the figure was 25.6%; with `O=C(COc1ccc(-c2nnco2)cc1)NC1CCCc2ccccc21` (stereo not drawn), -16%.
Turning to `CC(C)(C)c1cnnn1-c1cccc([N+](=O)[O-])c1`, the “hERG current change (%, negative = inhibition) at 1uM” value is listed as 12%.
The result for `O=C(O)c1sccc1S(=O)(=O)N1CCOCC1` reads 15.1%; that for `Cc1cccc(N(C)C(=O)c2cc3c(=O)[nH]c4ccc(C)cc4c3s2)c1`, 9.07%; that for `CS(=O)(=O)N1CCn2c1nc1ccccc12`, 8.88%.
On to `CC(=O)c1ccc(OCCCOc2cccc3cccnc23)cc1`, for which the “hERG current change (%, negative = inhibition) at 1uM” value turned out to be 13.7%.
With `FC(F)(F)c1ccc(/C=N/N2CCN(Cc3ccccc3)CC2)cc1` the figure was 11.1%.
Turning to `O=C(CN(Cc1ccccc1)C(=O)CNS(=O)(=O)c1ccc(F)cc1)NCc1ccco1`, the “hERG current change (%, negative = inhibition) at 1uM” value is reported as -11.8%.
With `Cc1cc(NC(=O)CN2CC(C)OC(C)C2)n(-c2nc3ccccc3s2)n1` (stereo not drawn) the figure was 13.6%.
The result for `COc1ccc(OC(C)C(=O)N2CCN(c3ccccn3)CC2)cc1` (stereo not drawn) reads 3.12%; that for `COc1cc(C(=O)N2CCN(Cc3ccccc3C(F)(F)F)CC2)cc(OC)c1OC`, 1.68%; that for `Cc1ccc(OCc2cnc(Cl)s2)c(C)c1`, 15%.
With `CCCCCOc1ccc(NC(=O)c2cc(SC)ccc2Cl)cc1` the figure was 12.1%; with `O=C(c1ccc(Sc2ccc(F)cc2)c([N+](=O)[O-])c1)N1CCOCC1`, -0.641%; with `COc1cccc(NC(=O)CN(C)C(=O)c2ccc3c(c2)CC(c2ccccc2)OC3=O)c1` (stereo not drawn), 0.473%.
`Cc1ccccc1-c1nc(CS(=O)(=O)CC(=O)NC2CCCCC2C)c(C)o1` (stereo not drawn): the “hERG current change (%, negative = inhibition) at 1uM” value is recorded as -1.4%.
With `CCN(CC)S(=O)(=O)c1ccc(OCC2CCCCO2)c([N+](=O)[O-])c1` (stereo not drawn) the figure was 11.3%.
The result for `O=C(CCc1ccccc1)Nc1ncc2c(n1)CCCC2=O` reads 2.31%; that for `CSc1nc2nc(-c3ccccc3)cc(C(F)(F)F)n2n1`, 10.3%; that for `O=C(Cn1nnc2ccccc2c1=O)N1CCOCC1`, 7.95%.
The result for `Cc1cc(C)c(S(=O)(=O)Nc2nnc(C3CCCCC3)s2)c(C)c1` reads 17.2%; that for `CC(NCC(O)COc1ccccc1)C1COc2ccccc2O1` (stereo not drawn), -2.33%; that for `COc1ccc(C(=O)COC(=O)CNS(=O)(=O)c2ccc(C)cc2)cc1`, 7.18%.
For the compound `COC(=O)c1c(-c2ccc(OC)cc2)oc2ccc(-c3cc(OC)c(OC)c(OC)c3)cc12`, the “hERG current change (%, negative = inhibition) at 1uM” value was found to be 11.5%.
`Cc1ccc(-c2noc(C3CCCN(C(=O)c4ccc(F)cc4F)C3)n2)cc1` (stereo not drawn): the “hERG current change (%, negative = inhibition) at 1uM” value is -14.9%.
The result for `COc1ccccc1C(=O)NC1CCCc2ccccc21` (stereo not drawn) reads 18.4%; that for `COc1ccc2ccccc2c1/C=N/Nc1ccc(Cl)c(C(=O)O)c1`, 14.3%; that for `C/C(=N\NC(=O)c1nnn(-c2nonc2N)c1CN1CCCCCC1)c1ccc(Br)cc1`, 18.2%.
The result for `CNC(=O)c1ccc(OCc2ccccc2)c(OC)c1` reads 4.35%.
With `Cc1cc(C(=O)Nc2ccc(S(=O)(=O)Nc3onc(C)c3C)cc2)c(C)o1` the figure was 7.15%; with `Cc1nc(NC(=O)C(Cl)Cl)sc1C(=O)N(C)C`, 7.63%; with `COc1cc(NC(=S)N2CCCC(C)C2)cc(OC)c1OC` (stereo not drawn), 13.4%.
Consider `Cc1ccsc1C(=O)Nc1nnc(-c2ccco2)o1`, for which the “hERG current change (%, negative = inhibition) at 1uM” value was determined as 5.56%.
The result for `O=C(CCSc1ccccc1)N1CCCC1` reads 15.8%; that for `CC(C)CC(=O)Nc1cc2c3c(c1)CCN3C(=O)CC2`, 13.3%.
With `O=C(COc1c(Br)cc(Br)cc1Br)N/N=C/c1ccco1`, the “hERG current change (%, negative = inhibition) at 1uM” value is reported as 13.8%.
`O=C(CSc1nn(-c2ccc(Cl)cc2)c(=S)s1)N1CCN(C(=O)c2ccco2)CC1`: the “hERG current change (%, negative = inhibition) at 1uM” value is given as -44.1%.
The result for `Cc1nc(NC(N)=S)sc1C(=O)Nc1ccccc1` reads 6.92%; that for `CC(C)COc1ccc(-c2nn(-c3ccccc3)cc2C(=O)Nc2nccs2)cc1`, 7.73%.
For `O=C(O)[C@H](Cc1ccccc1)NC(=O)N1CCC(Cc2ccccc2)CC1`, the “hERG current change (%, negative = inhibition) at 1uM” value was 1.61%.
The result for `COc1ccc(NC(=O)Cn2c(=O)n(-c3ccc(OC)cc3OC)c(=O)c3c(C)c(C)sc32)cc1` reads 3.79%; that for `CCOc1ccc(Oc2ccc(Cl)cc2N)cc1.Cl`, 7.85%.
As to `CC(C)(C#N)NC(=O)c1ccco1`, the “hERG current change (%, negative = inhibition) at 1uM” value was determined as 8.11%.
With `O=C(CNCC1CCCCC1)Nc1ccc(N2CCCCC2)cc1.O=C(O)C(=O)O` the figure was -0.686%; with `Cc1cc(C)n(-c2nc3ccccc3c(=O)n2OCC(N)=O)n1`, 17%; with `CCOc1cc(/C=C2\C(=O)NN(c3ccccc3)C2=O)cc([N+](=O)[O-])c1O`, 11.7%.
Take `Cc1cc(NC(=O)CSc2nc(N)c(NC(=O)c3ccc(F)c(F)c3)c(=O)[nH]2)no1`: the “hERG current change (%, negative = inhibition) at 1uM” value was 14.1%.
For the compound `COc1ccc(N=C2SCC(c3ccc(C)cc3)=NN2CCO)cc1`, the “hERG current change (%, negative = inhibition) at 1uM” value was determined as 10.5%.
Regarding `Cc1c(N/C=C/C(=O)c2cccs2)c(=O)n(-c2ccccc2)n1C`, the “hERG current change (%, negative = inhibition) at 1uM” value is recorded as 10.1%.
With `CCN(CC)c1ccc(/C=N/NC(=O)Nc2nonc2N)cc1` the figure was 8.11%.
As to `Cc1c(C(=O)OCC(=O)Nc2c(C)n(C)n(-c3ccccc3)c2=O)oc2ccccc12`, the “hERG current change (%, negative = inhibition) at 1uM” value came out at 12.9%.
The result for `CSc1ccc(CN2C(=O)NC3(CCCCC3)C2=O)cc1` reads 11.2%.
With `NC(=O)c1cc[n+](Cc2ccc([N+](=O)[O-])cc2)cc1.[Br-]` the figure was 10.9%; with `COCCNC(=O)C1CC(c2ccc([N+](=O)[O-])cc2)=NO1` (stereo not drawn), 2.69%.
The result for `CCc1cc2c(SCC(=O)NC(=O)c3cccn3C)ncnc2s1` reads 16.3%.
For `Cc1ccc(NC(=S)N2CCCC(c3ccccc3)=N2)cc1`, the “hERG current change (%, negative = inhibition) at 1uM” value is 17.7%.
As for `O=C(c1ccc(S(=O)(=O)c2ccccc2Cl)c([N+](=O)[O-])c1)N1CCN(Cc2ccccc2)CC1`, the “hERG current change (%, negative = inhibition) at 1uM” value is listed as -1.76%.
Turning to `Cc1cc(C)n2nc(C(=O)OCC(=O)NNC(=O)c3ccc(Cl)cc3)nc2n1`, the “hERG current change (%, negative = inhibition) at 1uM” value was 13.3%.
With `C=CCNC(=S)Nc1ccc(OC(F)F)c(Cl)c1` the figure was 2.83%; with `Cc1ccc(/C=N/NC(=O)CCn2nc(C)cc2C)c(C)c1`, -0.275%.
With `O=S(=O)(c1ccccc1)[C@@]1(c2ccccc2)C[C@@H]2ON=C(c3cccc(Br)c3)[C@@H]2C1` the figure was 13.3%; with `CCOc1cc(S(=O)(=O)Nc2ccccc2CC)ccc1Cl`, -6.86%; with `COc1cccc(N2CCN(c3ccc4nnc(CCC(=O)Nc5ccc(OC)c(OC)c5)n4n3)CC2)c1`, 10.5%.
In the case of `NC(=O)c1cc[n+](CC(=O)NC(=O)Nc2ccccc2)cc1`, the “hERG current change (%, negative = inhibition) at 1uM” value is reported as 9.18%.
On to `CC1=N/C(=C\c2ccc([N+](=O)[O-])cc2)C(=O)N1c1ccc(F)cc1F`, for which the “hERG current change (%, negative = inhibition) at 1uM” value came out at 0.824%.
The result for `Cc1ccc(S(=O)(=O)c2c(C)nn(C(C)(C)C)c2OC(=O)c2ccc(Br)o2)cc1` reads 15%.
The result for `CCOC(=O)Cc1nn[nH]n1` reads 20.1%; that for `O=C(O[C@@H](C(=O)O)[C@@H](OC(=O)c1ccccc1)C(=O)O)c1ccccc1`, 13.9%.
As for `CCCCOC(=O)C1[C@H]2C(=O)N(CCc3ccccc3)C[C@]23C=C[C@H]1O3` (stereo partly drawn), the “hERG current change (%, negative = inhibition) at 1uM” value was 12.3%.
With `COC(=O)c1ccc(CN2C(=O)c3ccccc3C2=O)o1` the figure was 18.8%; with `Cc1ccc(S(=O)(=O)Nc2cc(C)c(O)c(S(=O)(=O)c3ccc(C)cc3)c2)cc1`, -4.15%.
Regarding `Cn1nnnc1SCC(=O)N1CCOCC1`, the “hERG current change (%, negative = inhibition) at 1uM” value is recorded as 16.4%.
The result for `CCOC(=O)CSc1nnc(NC(=O)c2ccc3c(c2)OCO3)s1` reads -2.31%.
With `CCC(=Nc1ccc2c(c1)CCC2)c1c(O)n(C2CCCCC2)c(=O)[nH]c1=O` the figure was -22.8%; with `O=C(CCC(=O)Nc1ccccc1)N/N=C/c1cccnc1`, 7.89%; with `Nc1ccc2c(C(F)(F)F)cc(C(F)(F)F)nc2n1`, 14%.
The result for `Nc1nc(Cl)cc(-c2ccccc2)n1` reads 6.89%; that for `O=C(CNC(=O)c1cccc(Br)c1)N/N=C/c1cccs1`, 15.4%.
As for `O=C(c1cccc(Cl)c1)N1CCN(Cc2ccc3c(c2)OCO3)CC1`, the “hERG current change (%, negative = inhibition) at 1uM” value turned out to be 6.48%.
As to `O=C(NC1CCCCC1)C(c1ccccc1)N(C(=O)c1csnn1)C1CC1` (stereo not drawn), the “hERG current change (%, negative = inhibition) at 1uM” value is listed as 12.3%.
Consider `Cc1c(/C=N/NC(=O)c2ccc(Br)o2)cnn1C`, for which the “hERG current change (%, negative = inhibition) at 1uM” value came to 17.8%.
With `CCC(C)(C)NC(=O)C(c1ccc(O)cc1)N(Cc1ccco1)C(=O)CCC(=O)Nc1ccccn1` (stereo not drawn) the figure was 14.9%; with `CCOC(=O)c1cccc(NC(=O)CSc2nnc(COc3ccc(Cl)cc3)o2)c1`, 17.6%; with `CN1CCN(C(=O)/C(=C/c2ccco2)NC(=O)c2ccccc2)CC1`, -37.1%.
The result for `CCCOC(=O)C1NC(=O)N2C(C(=O)OCCC)C(C)(C)S[C@H]12` (stereo partly drawn) reads 11.9%; that for `Cc1nc(NC(=O)CSc2nnc(-c3ccncc3)n2C)sc1C`, 29.2%.
